Several values for one entry are separate records, joined by “and”; a condition that tells them apart may be missing. Equal values may be shown once. In all, about 420,000 compounds went through this assay and about 64,000 (15%) were called active. Inconclusive results, whose numbers are uncertain, are shown with a selection of clear calls. Calls come from the whole dose curve; as a rule, active = well fitted inhibition curve with a large enough effect; inconclusive = small, poorly fitted or top-dose-only effect; inactive = flat fitted curve, though single readings scatter. Potencies of inconclusive entries are left out as doubtful fits.
Test: qHTS for Inhibitors of human tyrosyl-DNA phosphodiesterase 1 (TDP1): qHTS in cells in absence of CPT; note: nearly all actives have a fitted effect of over 55% in size
Conditions: DT40 Tdp1-/- hTDP1 cells, no CPT, ATP luminescence, 48 h; activity change, negative = growth inhibition: at 46.2 µM (top of the series) unless noted
How it was run: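 Luminescent ATP content (CellTiter-Glo) served as the growth readout. Knockout chicken DT40 cells expressing human TDP1 were exposed to compounds without camptothecin for a minimum 48 hr at 37 °C.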
% is set by controls: 0 for no effect and ±100 for the full control effect; potency is the fitted concentration of half-maximal effect; tags give direction and shape of the fitted curve.

| SMILES | Potency | activity change, negative = growth inhibition |
| --- | --- | --- |
| O=C(CSc1nnc(C2CCCCC2)o1)Nc1ccccc1Cl | inconclusive [inhibitor, single point] | – |
| CCc1nnc(SCc2nc(-c3ccc(OC)cc3)oc2C)c2cc3sccc3n12 | inactive | – |
| CC1(C(=O)N2CCCCC2)CCN1C(=O)Cc1ccc(-c2ccccc2)cc1 (stereo unspecified) | inconclusive [inhibitor, single point] | – |
| COc1ccccc1CCNC(=O)Cn1ccc2cc(S(=O)(=O)N3CCCCCC3)ccc21 | inconclusive [inhibitor, single point] | – |
| CN1/C(=C\C(=O)c2ccco2)c2ccccc2CC1(C)C | inconclusive [inhibitor, partial curve] | – |
| COc1cccc(-c2nn(C)c3sc(C(=O)N4CCN(c5cccc(C)c5)C(C)C4)cc23)c1 (stereo unspecified) | active: 23.1 µM | – |
| Cc1cnc2ccc(I)cc2c1/C=C/c1ccc(N(C)C)cc1 | active: 4.47 µM | – |
| C=CCSc1nnc2n(-c3ccccc3OC)c(=O)c3c4c(sc3n12)CCC4 | inconclusive [inhibitor, partial curve] | – |
| CCN(CC)CCCNC(=O)c1cc2nc3c(c(C(F)(F)F)n2n1)CCc1ccccc1-3 | inconclusive [inhibitor, single point] | – |
| COc1ccc(-c2ccc(C(=O)NCC3CCOCC3)c3occc23)c(C)c1 | inconclusive [inhibitor, single point] | – |
| CCOC(=O)c1c(C)[nH]c(N=Nc2ccccc2C)c1C | inconclusive [inhibitor, single point] | – |
| Cc1c(Cl)ccc2sc(N3CCN(C(=O)c4ccco4)CC3)nc12 | active: 11.6 µM | – |
| COc1cccc(-n2cc(CN(C)Cc3nc(Cc4ccccc4)no3)cn2)c1 | inconclusive [inhibitor, partial curve, poor fit] | – |
| COc1cc(-c2noc(C)c2C#Cc2ccccn2)cc(OC)c1OC | active: 398 nM and active: 1.03 µM | – |
| Cc1ccc(CCNC(=O)CN(c2ccc(C)cc2)S(=O)(=O)c2c(C)noc2C)cc1 | active: 18.4 µM and active: 16.4 µM | – |
| COc1cc(C(=O)OCC(=O)N(CC(C)C)C2CCS(=O)(=O)C2)ccc1OCC(C)C (stereo unspecified) | – | inconclusive: -36% [inhibitor] |
| CCN(CCNC(=O)CN1CCN(Cc2ccc(Cl)cc2)C1=O)c1ccccc1 | inconclusive [inhibitor, single point] | – |
| Cc1cc(C)c2c(CC(=O)N(Cc3ccc(N(C)C)cc3)Cc3ccco3)coc2c1 | active: 20.6 µM | – |
| C[Si](C)(C)O[Si](C)(C)C | inactive | – |
| Cc1ccc(N2CC(C(=O)Nc3ccc(S(=O)(=O)NCC4CCCO4)cc3)CC2=O)cc1C (stereo unspecified) | inconclusive [inhibitor, partial curve] | – |
| CN(Cc1nc(-c2cccc(Cl)c2)no1)C1CCOCC1 | inconclusive [inhibitor, partial curve] | – |
| O=C(NCCC(F)(F)F)c1cccc2c(-c3ccc(F)c(F)c3)coc12 | inconclusive [inhibitor, single point] | – |
| COc1ccc(NC(=O)Cn2cnc3sc(C)c(S(=O)(=O)N4CCN(C)CC4)c3c2=O)cc1OC | inactive | – |

| SMILES | Potency | activity change, negative = growth inhibition |
| --- | --- | --- |
| Cc1ccc(OCc2ccc(C(=O)NCc3cccnc3)cc2)cc1C | active: 5.17 µM | – |
| CCOc1ccc(CNC(=O)c2cc3oc4ccccc4c3n2C)cc1 | inconclusive [inhibitor, partial curve] | – |
| CCOC1=C2[C@@H](CN(S(=O)(=O)c3ccc(C)cc3)[C@H]2c2ccccc2Cl)[C@H]2C(=O)NC(=O)[C@H]2C1 | inconclusive [inhibitor, single point] | – |
| COc1ccc(C(=O)n2cc(C(=O)c3cc(C)ccc3O)cn2)cc1 | inactive | – |
| Nc1nonc1-n1nnc(C(=O)N/N=C/c2ccccc2Cl)c1CN1CCOCC1 | inactive | – |
| Cc1c2cnn(CC(=O)O)c(=O)c2c(C)n1Cc1ccccc1 | inactive | – |
| COc1ccc(NS(=O)(=O)c2cccc(NC(=O)c3ccccn3)c2)cc1 | inconclusive [inhibitor, single point] | – |
| O=C(O)C1CSC(CCc2ccccc2)N1 (stereo unspecified) | inactive | – |
| Cc1ccccc1OCc1ccc(-c2nc(C#N)c(NCCCN(C)C)o2)o1 | inconclusive [inhibitor, single point] | – |
| Cc1ccc(C(=O)Nc2ccc(Cl)c(-c3nc4ncccc4o3)c2)c(C)c1 | inconclusive [inhibitor, single point] | – |
| O=C(/C=C/c1ccc(OCCCF)cc1)Nc1ccnc(-c2cccnc2)n1 | inconclusive [inhibitor, full curve] | – |
| COc1cccc(CNC(=O)C2CCN(S(=O)(=O)c3ccc4c(c3)OCCO4)CC2)c1 | inactive | – |
| CC1CCCCN1Cc1c(C#N)c2ccccc2n1C (stereo unspecified) | inconclusive [inhibitor, single point] | – |
| CC(C)CNC(=O)CSc1ccc(Cl)cc1 | inactive | – |
| CCOC(=O)C1C(C)N=C2SCC(=O)N2C1c1cccc(Br)c1 (stereo unspecified) | inconclusive [inhibitor, single point] | – |
| COc1cc(/C=C/c2cc(C(F)(F)F)[nH]c(=O)n2)cc(OC)c1OC | inconclusive [inhibitor, single point] | – |
| O=C(Nc1ccc(F)cc1)[C@H](Cc1ccccc1)N1Cc2ccccc2C1=O | inconclusive [inhibitor, single point] | – |
| COc1cccc(NC(=O)C2(C)CCN2C(=O)C2CCCCC2)c1 (stereo unspecified) | inconclusive [inhibitor, single point] | – |
| CCOCCCNC(=S)N1CCCN(c2nc3cc(C)cc(C)c3cc2C#N)CC1 | active: 20.6 µM | – |
| CCc1cc2c(cc(C(=O)O)n2C)s1 | inactive | – |
| CCCCCn1c(CN2CCN(c3cccc(Cl)c3)CC2)nc2c1c(=O)[nH]c(=O)n2C | inconclusive [inhibitor, single point] | – |
| CC1=NNC(=O)C1C(c1ccccc1)C(C#N)C#N (stereo unspecified) | inactive | – |
| CCc1cnc(Nc2nc(C(N)c3ccccc3Cl)cs2)nc1 (stereo unspecified) | inconclusive [inhibitor, single point] | – |

Source: PubChem BioAssay AID686978 (National Center for Advancing Translational Sciences (NCATS), 2013)
